# Hit rate of the full screen: of about 420,000 compounds, about 64,000 (15%) were called active. The shares of active, inactive and inconclusive entries below differ from those in the screen. Calls come from the whole dose curve; as a rule, active = well fitted inhibition curve with a large enough effect; inconclusive = small, poorly fitted or top-dose-only effect; inactive = flat fitted curve, though single readings scatter. No potency is given beside an inconclusive call; the fits are too rough.
# Experiment: qHTS for Inhibitors of human tyrosyl-DNA phosphodiesterase 1 (TDP1): qHTS in cells in absence of CPT; note: nearly all actives have a fitted effect of over 55% in size
# Settings: DT40 Tdp1-/- hTDP1 cells, no CPT, ATP luminescence, 48 h; activity change, negative = growth inhibition: at 46.2 µM (top of the series) unless noted
# Outline: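 DT40 Tdp1-/-;hTDP1 cells, no CPT (DMSO vehicle only), 400 cells/well; compounds pin-transferred; ≥48 hr, 37 °C; CellTiter-Glo 30 min RT dark, luminescence read.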
# % is set by controls: 0 for no effect and ±100 for the full control effect; potency is the fitted concentration of half-maximal effect; tags give direction and shape of the fitted curve.
Compound,Potency,"activity change, negative = growth inhibition"
C=C(COC(=O)CCC(=O)O)CC1CC(O)[C@]2(C)OC3CC4OC5C[C@]6(C)O[C@]7(C)CCC8OC9C[C@]%10(C)OC%11C(C)=CC(=O)OC%11CC%10OC9C[C@@H](C)C8OC7CC6O[C@]5(C)C/C=C\C4OC3CC2O1 (stereo partly specified),"inconclusive [inhibitor, single point]",–
CCCCCCC(=O)c1c(O)n(-c2ccccc2OC)c(=O)[nH]c1=O,"inconclusive [inhibitor, single point]",–
CCC(=O)C1=C(c2cccc([N+](=O)[O-])c2)N(C(=O)CC)n2c(nnc2C2CCCCC2)S1,active: 4.11 µM,–
Cn1c(=O)oc2cc(NC(=O)CCl)ccc21,active: 23.1 µM,–
Cc1nc2ccc(Cl)cn2c1P(=S)(N1CCOCC1)N1CCOCC1,"inconclusive [inhibitor, single point]",–
COC(=O)C1=C(c2ccc(-c3ccccc3)c(F)c2)C[C@@H]2CC[C@H]1N2C(=O)NC1Cc2ccccc2C1,"inconclusive [inhibitor, single point]",–
O=C(CCC1CCCC1)c1c(O)c2ccccc2oc1=O,active: 4.11 µM,–
C[C@]12CCC(=O)C=C1CC[C@@H]1C2CC[C@]2(C)C(=O)CCC12 (stereo partly specified),inactive,–
COc1ccc(OC(=O)N(C)C[C@@H]2OCc3cnnn3CCCC(=O)N([C@@H](C)CO)C[C@@H]2C)cc1,inactive,–
COc1cccc(N2C(=O)NC(=O)C3(Cc4cc(C)ccc4N(C)C3)C2=O)c1 (stereo unspecified),"inconclusive [inhibitor, partial curve]",–
Cn1c(O)c(/C=N/N2CCOCC2)c(=O)[nH]c1=S,inactive,–
FC(F)(F)c1ccc2c(c1)N(CCCN1CCN(CCCl)CC1)c1ccccc1S2,active: 8.2 µM,–
C#CCN1C(=O)S/C(=C\c2ccc(N3CCOCC3)cc2C)C1=O,active: 7.31 µM,–
Cc1cc(C)cc(-n2c(/C=C/c3cccc(F)c3)nc3ccccc3c2=O)c1,"inconclusive [inhibitor, single point]",–
C=CCN1CCC2(C)c3cc(O)ccc3CC1[C@@H]2C (stereo partly specified),"inconclusive [inhibitor, single point]",–
CC(C)(O)[C@@H]1C2OC(=O)[C@@H]1[C@]1(O)C[C@H]3O[C@]34C(=O)O[C@H]2[C@]14C,inactive,–
CC1(C)CN=C(NCc2ccccc2Cl)S1,inactive,–
O=C1NC(=S)NC(=O)C1=Cc1ccc(Br)s1,active: 9.2 µM,–
Cn1c(=O)oc2cc(S(=O)(=O)NC3CCCCCCC3)ccc21,"inconclusive [inhibitor, single point]",–
Cc1ccccc1S(=O)(=O)N1C[C@H]2[C@H]3C(=O)N(C4CCCCC4)C(=O)[C@H]3CC(=O)[C@H]2[C@@H]1c1ccc(Cl)cc1,"inconclusive [inhibitor, single point]",–
COc1ccc2c3c1O[C@H]1C(=O)CC[C@H]4[C@@H](C2)N(C)CC[C@]314,"inconclusive [inhibitor, single point]",–
COc1c(CC=C(C)C)c2c(c3oc(=O)c(-c4ccc(O)cc4)c(O)c13)C=CC(C)(C)O2,inactive,–
O=C(N/N=C\c1ccc(COc2ccc([N+](=O)[O-])cc2)o1)c1cccc(Cl)c1,"inconclusive [inhibitor, partial curve]",–
CC(C)(C)NC(=S)N1Cc2ccccc2-n2nncc2C1,inactive,–

Compound,Potency,"activity change, negative = growth inhibition"
O=C1CN=C(c2ccccc2)c2cc(Br)ccc2N1Cc1cc(=O)n2ccccc2n1,"inconclusive [inhibitor, single point]",–
NC(=NCc1ccc(Cl)cc1)SCCCc1cnc[nH]1,"inconclusive [inhibitor, partial curve, poor fit]",–
COc1ccc(/C=C/C(=O)c2c(O)n(CCC3=CCCCC3)c(=O)[nH]c2=O)cc1,"inconclusive [inhibitor, full curve, poor fit]",–
O=[N+]([O-])c1cccc(NP(=O)(Oc2ccccc2)Oc2ccccc2)c1,"inconclusive [inhibitor, partial curve]",–
CC(Cc1ccccc1)/[N+]([O-])=C\c1ccc(C(F)(F)F)cc1 (stereo unspecified),"inconclusive [inhibitor, single point]",–
CCCCNS(=O)(=O)c1ccc(OCC(=O)N2CCN(Cc3ccc4c(c3)OCO4)CC2)cc1,"inconclusive [inhibitor, partial curve]",–
O=C(Nc1ccc(Br)cc1)c1cc(Br)cc(Br)c1O,inactive,–
COc1ccc(CN2CCN(Cc3ccccc3OC)CC2)cc1,–,inconclusive: -34.1% [inhibitor]
O=C(Cn1c(=O)oc2cc(S(=O)(=O)N3CCCCCC3)ccc21)NCc1ccccc1Cl,active: 7.31 µM,–
COc1cc(C[C@H](C)N)c(OC)cc1C,inactive,–
Cc1occc1C(=O)Nc1cccc(-c2nc(CNC(=O)c3cccc(C#CC(C)(C)O)c3)c(C)o2)c1,active: 20.6 µM,–
COC(=O)[C@@]1(Cc2ccccc2)[C@H]2C(=O)N(Cc3ccccc3)C(=O)[C@H]2[C@H]2CN=C(SCc3ccc(C#N)cc3)N21,"inconclusive [inhibitor, single point]",–
COc1ccc2ccc(O)c(CN3CC=C(c4ccccc4)CC3)c2c1,active: 18.4 µM,–
CN1C(=O)/C(=C/C=C/c2ccco2)C(=O)NC1=S,"inconclusive [inhibitor, single point]",–
OC(CN1CC=C(c2ccccc2)CC1)c1ccccc1 (stereo unspecified),"inconclusive [inhibitor, single point]",–
CC(C1OC(C)(C)C(O)C1O)C1CC[C@@]2(C)C3=CCC4C(C)(C)C(=O)CC[C@]4(C)C3CC[C@@]12C (stereo partly specified),"inconclusive [inhibitor, partial curve]",–
COc1cccc(N2C(=O)NC(=O)/C(=C\c3cn(C)c4ccccc34)C2=O)c1,inactive,–
COc1cccc(CC(=O)N2CCN(Cc3cccc(Cl)c3)CC2)c1,"inconclusive [inhibitor, partial curve]",–
C[n+]1c(-c2ccccc2)cc(-c2ccc(O)cc2)cc1-c1ccccc1,active: 20.6 µM,–
CC(=NCC1CCCO1)c1c(O)n(-c2ccccc2C)c(=O)[nH]c1=O (stereo unspecified),inactive,–
CCCCCn1cc(C(=O)C(=O)N2CCOCC2)c2ccccc21,inactive,–
C/C(=C/CCC(C)[C@H]1CC[C@@]2(C)C3=C(CC[C@]12C)[C@@]1(C)CCC(=O)C(C)(C)[C@@H]1CC3)C(=O)O (stereo partly specified),"inconclusive [inhibitor, single point]",–
COC(=O)c1ccc(Cl)c(NC(=O)CN2CCN(Cc3ccccc3)CC2)c1,"inconclusive [inhibitor, single point]",–
O=c1[nH]c(SCc2ccccc2Cl)nc2c1CCCC2,"inconclusive [inhibitor, single point]",–

Compound,Potency,"activity change, negative = growth inhibition"
CC(C)(C)OC(=O)NCc1ccc(CNC(=O)c2nc[nH]c2C(=O)NCc2ccc(CNC(=O)OC(C)(C)C)cc2)cc1,active: 20.6 µM,–
c1cc2c(cc1NC1=NCCO1)CCCC2,"inconclusive [inhibitor, single point]",–
CNC(=O)Oc1ccc2c(c1)C(=O)c1ccccc1CO2,"inconclusive [inhibitor, partial curve]",–
CCCCN1CC(=O)N2[C@H]3c4cc(C)ccc4OC[C@@H]3[C@H](c3ccccc3)[C@]2(C)C1=O,"inconclusive [inhibitor, single point]",–
NCCc1ccccc1,inactive,–
CCOc1ccccc1NC(=O)c1ccccc1N(C)S(=O)(=O)c1ccc(C)cc1,"inconclusive [inhibitor, single point]",–
C[C@H]1CN([C@@H](C)CO)C(=O)Cc2cc(NC(=O)Cc3ccccc3)ccc2O[C@H]1CN(C)S(=O)(=O)c1cccs1,"inconclusive [inhibitor, single point]",–
Cc1cccc(OP(=O)(Nc2ccc(F)cc2)Oc2cccc(C)c2)c1,"inconclusive [inhibitor, single point]",–
CC(=NCCCn1ccnc1)c1c(O)n(C)c(=O)n(C)c1=O,inactive,–
CNC(=O)N(C)c1ccc(C(O)(C(=O)OC)C(F)(F)F)cc1 (stereo unspecified),inactive,–
COCCN1C(=O)NC(=O)/C(=C\c2ccc(Br)cc2)C1=O,"inconclusive [inhibitor, partial curve, poor fit]",–
CC(C)c1ccc(NC(=O)Nc2nc(C(N)CCc3ccccc3)cs2)cc1 (stereo unspecified),active: 4.61 µM,–
Cc1cnc[nH]1,–,inconclusive: -2.27% [inhibitor]
Clc1cccc(/C=N\Nc2nccs2)c1,active: 4.61 µM,–
NC(N)=N/N=C/c1ccc(N2CCOCC2)cc1,active: 4.61 µM,–
COC(=O)C1=C(C)NC(=S)NC1c1ccc(N(CCCl)CCCl)cc1Cl (stereo unspecified),active: 20.6 µM,–
c1ccc(CCN2CCCCC2)nc1,inactive,–
CSc1ccc(CN2CCN(C(=O)Cc3ccccc3)CC2)cc1,inactive,–
CCOc1c(Cl)cc(CNc2ccc(S(N)(=O)=O)cc2)cc1OC,active: 16.4 µM,–
c1ccc(N2CC[C@@]3(CCCNC3)C2)cc1,"inconclusive [inhibitor, partial curve]",–
O=C(C1CCC(=O)N1Cc1ccccc1Cl)N1CCC2(CC1)OCCO2 (stereo unspecified),inactive,–
C=CCN1CC[C@]23CCCC[C@H]2[C@H]1Cc1ccc(O)cc13,"inconclusive [inhibitor, partial curve, poor fit]",–
COc1ccc(/C=C/c2cc(O)cc(O)c2)cc1,active: 4.61 µM,–

# From PubChem BioAssay AID686978 (National Center for Advancing Translational Sciences (NCATS), 2013)
